# According to paper PMC10668032:
# This is one part of the list. At the low end of the ranking the order means little.
# Molecular target: SIX1 homeodomain (reference allele) (UniProt Q15475)
# Experiment: universal protein binding microarray
# Settings: Universal all-10-mer PBM (8x60K, AMADID 030236), 300 nM GST-tagged protein, Alexa Fluor 488 anti-GST; buffer, salt, pH and temperature not stated; high values mean tight binding; most listed sequences are background and not binding sites; double strand, one strand shown
row,Sequence,binding signal [E-score]
1,GGTCCATA,-0.0714
2,GCTGTTCA,-0.135
3,ATTTGTAA,-0.0568
4,AAGGACTC,-0.13
5,GATTGACC,-0.0626
6,CACTACTA,-0.07
7,ATGAAGAC,0.057
8,CGCCTCCC,0.0417
9,TGTTCAAA,-0.162
10,CTCCCTAA,-0.0339
11,AGCCAGAC,-0.175
12,ATCAACCG,0.0632
13,AACATCAT,-0.0426
14,GCCCCAAA,-0.303
15,GAATTATC,0.0845
16,CGCCATTA,-0.171
17,AGATTCGC,-0.0636
18,AATGCTCG,-0.176
19,ACGTTGAA,-0.199
20,CTATACAG,0.183
21,ACTTTCCA,-0.19
22,AAGTTTAA,-0.122

row,Sequence,binding signal [E-score]
1,AACTCTGG,-0.0692
2,TCAGGTCA,-0.00983
3,CACGACAG,-0.0349
4,GGCCGTAA,-0.207
5,GCCCCCAC,-0.145
6,CCTAAACA,-0.0963
7,CGACGACA,-0.0939
8,ACTCTGGG,-0.0596
9,CCAGTCGG,-0.0339
10,AAATGTAA,-0.0702
11,GGGCTACA,-0.0372
12,CGCTTTAA,-0.0481
13,CAGTACGC,-0.0446
14,GCATAGGC,-0.222
15,CAGAGAAG,-0.0527
16,CCTTAGGC,-0.161
17,TCTATGAA,0.00915
18,ACAGCTGT,-0.132
19,CCATTCTA,-0.0599
20,ACCATTCA,-0.214
21,ACGTATAT,0.271
22,GTGCACCA,-0.2

row,Sequence,binding signal [E-score]
1,AAATTACA,-0.296
2,CCATAGCG,-0.141
3,CTAAGTGC,-0.189
4,ACCCGAGT,0.197
5,GCGTGCAC,-0.239
6,CAGTCCGA,-0.0927
7,GAACTATA,0.0528
8,CTTTTCTC,-0.281
9,CACTTAAC,-0.22
10,CCATTCCC,-0.0216
11,AGTCCTAT,0.0324
12,ACGCTCAA,-0.121
13,CCATGATA,0.376
14,ATATATAC,0.373
15,AATGAGGC,-0.146
16,AGTTACCA,0.00423
17,ATTCGAGG,-0.0529
18,ACCGCCAT,-0.144
19,CACGTCAA,-0.136
20,ATTTGTCC,-0.0424
21,ATACCACA,0.3
22,ACTATGGG,0.0372

row,Sequence,binding signal [E-score]
1,TACTACAA,0.126
2,ATCACCTG,0.33
3,ACGGCAAG,-0.175
4,ATCACAGC,0.276
5,CAACCAAG,-0.109
6,CCGGGCAC,-0.189
7,CCAACAAC,-0.105
8,ATGTGTGC,-0.0665
9,ACACCATA,0.302
10,GAGCTTAA,-0.192
11,GGTGTAAC,0.309
12,ACTATGCA,-0.0409
13,CTTCTGTA,-0.158
14,AATATAGT,0.0448
15,ACATTTCC,-0.169
16,ATATCGGC,0.394
17,GGCAGGTA,0.00479
18,CAAGTACA,-0.0765
19,GGCGCAGA,-0.11
20,CACATTAG,0.0103
